# Assay results as given in the supplement of paper PMC8728848.
# This is one part of the list.
# B1: VLRB.aGPA.23-GCN4-biotin (Petromyzon marinus) (protein)
# chain: ACPSQCSCSGTEVNCAGKSLASVPAGIPTTTRVLYLNSNQITKLEPGVFDRLANLRELHLWGNQLVSLPPGVFDNLANLEKLWLNSNQLTSLPAGLFDRLVNLEHLGLCCMKLTELPSGAFDKLTRLKQLGLDQNQLKSIPDGAFARLPSLTHVWLHTNPWDCQCTDILYLSGWVAQHSSIVGEGWPWRHSPDSAKCSGTNTPVRAVTEASTSPSKCP
# Columns and labels:
# Assay in all cases: glycan array binding signal (z-score within array); higher = stronger binding
# Details in all cases: glycan notation: IUPAC condensed, linker removed
# [1] = molecular target: GlcNAc(b1-3)Gal(b1-3)GalNAc
# How it was run: (§1)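 From the Consortium for Functional Glycomics database, 3228 arrays were curated, keeping only those whose protein sequence was available. Binding is given as a within-array Z-score averaged across arrays sharing a protein sequence and across linkers. Negative Z-scores can be read as non-binding.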
# GlcNAc(b1-3)Gal(b1-4)Glc = molecular target: GlcNAc(b1-3)Gal(b1-4)Glc
# How it was run: as §1
# [2] = molecular target: GlcNAc(b1-3)Gal(b1-4)GlcNAc
# How it was run: as §1
# [3] = molecular target: GlcNAc(b1-3)Gal(b1-4)GlcNAc(b1-2)Man(a1-3)[GlcNAc(b1-3)Gal(b1-4)GlcNAc(b1-2)Man(a1-6)]Man(b1-4)GlcNAc(b1-4)GlcNAc
# How it was run: as §1
# [4] = molecular target: GlcNAc(b1-3)Gal(b1-4)GlcNAc(b1-2)Man(a1-3)[GlcNAc(b1-3)Gal(b1-4)GlcNAc(b1-2)Man(a1-6)]Man(b1-4)GlcNAc(b1-4)[Fuc(a1-6)]GlcNAc
# How it was run: as §1
# [5] = molecular target: GlcNAc(b1-3)Gal(b1-4)GlcNAc(b1-2)[GlcNAc(b1-3)Gal(b1-4)GlcNAc(b1-6)]Man(a1-6)[GlcNAc(b1-3)Gal(b1-4)GlcNAc(b1-2)Man(a1-3)]Man(b1-4)GlcNAc(b1-4)GlcNAc
# How it was run: as §1
# [6] = molecular target: GlcNAc(b1-3)Gal(b1-4)GlcNAc(b1-3)Gal(b1-4)GlcNAc
# How it was run: as §1
# [7] = molecular target: GlcNAc(b1-3)Gal(b1-4)GlcNAc(b1-3)Gal(b1-4)GlcNAc(b1-2)Man(a1-3)[GlcNAc(b1-3)Gal(b1-4)GlcNAc(b1-3)Gal(b1-4)GlcNAc(b1-2)Man(a1-6)]Man(b1-4)GlcNAc(b1-4)GlcNAc
# How it was run: as §1
# [8] = molecular target: GlcNAc(b1-3)Gal(b1-4)GlcNAc(b1-3)Gal(b1-4)GlcNAc(b1-2)Man(a1-3)[GlcNAc(b1-3)Gal(b1-4)GlcNAc(b1-3)Gal(b1-4)GlcNAc(b1-2)Man(a1-6)]Man(b1-4)GlcNAc(b1-4)[Fuc(a1-6)]GlcNAc
# How it was run: as §1
# [9] = molecular target: GlcNAc(b1-3)Gal(b1-4)GlcNAc(b1-3)Gal(b1-4)GlcNAc(b1-2)[GlcNAc(b1-3)Gal(b1-4)GlcNAc(b1-3)Gal(b1-4)GlcNAc(b1-6)]Man(a1-6)[GlcNAc(b1-3)Gal(b1-4)GlcNAc(b1-3)Gal(b1-4)GlcNAc(b1-2)Man(a1-3)]Man(b1-4)GlcNAc(b1-4)[Fuc(a1-6)]GlcNAc
# How it was run: as §1
# [10] = molecular target: GlcNAc(b1-3)Gal(b1-4)GlcNAc(b1-3)Gal(b1-4)GlcNAc(b1-3)Gal(b1-4)GlcNAc(b1-2)Man(a1-3)[GlcNAc(b1-3)Gal(b1-4)GlcNAc(b1-3)Gal(b1-4)GlcNAc(b1-3)Gal(b1-4)GlcNAc(b1-2)Man(a1-6)]Man(b1-4)GlcNAc(b1-4)GlcNAc
# How it was run: as §1
# [11] = molecular target: GlcNAc(b1-3)Gal(b1-4)GlcNAc(b1-3)Gal(b1-4)GlcNAc(b1-3)Gal(b1-4)GlcNAc(b1-2)Man(a1-3)[GlcNAc(b1-3)Gal(b1-4)GlcNAc(b1-3)Gal(b1-4)GlcNAc(b1-3)Gal(b1-4)GlcNAc(b1-2)Man(a1-6)]Man(b1-4)GlcNAc(b1-4)[Fuc(a1-6)]GlcNAc
# How it was run: as §1
# [12] = molecular target: GlcNAc(b1-3)Gal(b1-4)GlcNAc(b1-3)Gal(b1-4)GlcNAc(b1-3)Gal(b1-4)GlcNAc(b1-2)[GlcNAc(b1-3)Gal(b1-4)GlcNAc(b1-3)Gal(b1-4)GlcNAc(b1-3)Gal(b1-4)GlcNAc(b1-6)]Man(a1-6)[GlcNAc(b1-3)Gal(b1-4)GlcNAc(b1-3)Gal(b1-4)GlcNAc(b1-3)Gal(b1-4)GlcNAc(b1-2)Man(a1-3)]Man(b1-4)GlcNAc(b1-4)[Fuc(a1-6)]GlcNAc
# How it was run: as §1
# [13] = molecular target: GlcNAc(b1-3)Gal(b1-4)GlcNAc(b1-3)Gal(b1-4)GlcNAc(b1-3)Gal(b1-4)GlcNAc(b1-3)Gal(b1-4)GlcNAc(b1-2)Man(a1-3)[GlcNAc(b1-3)Gal(b1-4)GlcNAc(b1-3)Gal(b1-4)GlcNAc(b1-3)Gal(b1-4)GlcNAc(b1-3)Gal(b1-4)GlcNAc(b1-2)Man(a1-6)]Man(b1-4)GlcNAc(b1-4)GlcNAc
# How it was run: as §1
# [14] = molecular target: GlcNAc(b1-3)Gal(b1-4)GlcNAc(b1-3)Gal(b1-4)GlcNAc(b1-3)Gal(b1-4)GlcNAc(b1-3)Gal(b1-4)GlcNAc(b1-2)Man(a1-3)[GlcNAc(b1-3)Gal(b1-4)GlcNAc(b1-3)Gal(b1-4)GlcNAc(b1-3)Gal(b1-4)GlcNAc(b1-3)Gal(b1-4)GlcNAc(b1-2)Man(a1-6)]Man(b1-4)GlcNAc(b1-4)[Fuc(a1-6)]GlcNAc
# How it was run: as §1
# [15] = molecular target: GlcNAc(b1-3)Gal(b1-4)GlcNAc(b1-3)Gal(b1-4)GlcNAc(b1-3)Gal(b1-4)GlcNAc(b1-3)Gal(b1-4)GlcNAc(b1-2)[GlcNAc(b1-3)Gal(b1-4)GlcNAc(b1-3)Gal(b1-4)GlcNAc(b1-3)Gal(b1-4)GlcNAc(b1-3)Gal(b1-4)GlcNAc(b1-6)]Man(a1-6)[GlcNAc(b1-3)Gal(b1-4)GlcNAc(b1-3)Gal(b1-4)GlcNAc(b1-3)Gal(b1-4)GlcNAc(b1-3)Gal(b1-4)GlcNAc(b1-2)Man(a1-3)]Man(b1-4)GlcNAc(b1-4)[Fuc(a1-6)]GlcNAc
# How it was run: as §1
# [16] = molecular target: GlcNAc(b1-3)Gal(b1-4)GlcNAc(b1-3)Gal(b1-4)GlcNAc(b1-3)GalNAc
# How it was run: as §1
# [17] = molecular target: GlcNAc(b1-3)Gal(b1-4)GlcNAc(b1-3)GalNAc
# How it was run: as §1
# [18] = molecular target: GlcNAc(b1-3)Gal(b1-4)GlcNAc(b1-3)[GlcNAc(b1-3)Gal(b1-4)GlcNAc(b1-3)]GalNAc
# How it was run: as §1
# [19] = molecular target: GlcNAc(b1-3)Gal(b1-4)GlcNAc(b1-6)[Gal(b1-3)]GalNAc
# How it was run: as §1
# [20] = molecular target: GlcNAc(b1-3)Gal(b1-4)GlcNAc(b1-6)[GlcNAc(b1-3)Gal(b1-3)]GalNAc
# How it was run: as §1
# [21] = molecular target: GlcNAc(b1-3)Gal(b1-4)GlcNAc(b1-6)[GlcNAc(b1-3)]Gal(b1-4)GlcNAc
# How it was run: as §1
# GlcNAc(b1-3)GalNAc = molecular target: GlcNAc(b1-3)GalNAc
# How it was run: as §1
# GlcNAc(b1-3)Man = molecular target: GlcNAc(b1-3)Man
# How it was run: as §1
# [22] = molecular target: GlcNAc(b1-3)[GlcNAc(b1-4)][GlcNAc(b1-6)]GlcNAc
# How it was run: as §1
# [23] = molecular target: GlcNAc(b1-3)[GlcNAc(b1-6)]Gal(b1-4)GlcNAc
# How it was run: as §1
# [24] = molecular target: GlcNAc(b1-3)[GlcNAc(b1-6)]GalNAc
# How it was run: as §1
# [25] = molecular target: GlcNAc(b1-4)Gal(b1-4)GlcNAc
# How it was run: as §1
# GlcNAc(b1-4)GlcNAc = molecular target: GlcNAc(b1-4)GlcNAc
# How it was run: as §1
# [26] = molecular target: GlcNAc(b1-4)GlcNAc(b1-4)GlcNAc
# How it was run: as §1
# [27] = molecular target: GlcNAc(b1-4)GlcNAc(b1-4)GlcNAc(b1-4)GlcNAc(b1-4)GlcNAc
# How it was run: as §1
# [28] = molecular target: GlcNAc(b1-4)GlcNAc(b1-4)GlcNAc(b1-4)GlcNAc(b1-4)GlcNAc(b1-4)GlcNAc
# How it was run: as §1
# [29] = molecular target: GlcNAc(b1-4)[GlcNAc(b1-6)]GalNAc
# How it was run: as §1
# [30] = molecular target: GlcNAc(b1-6)Gal(b1-4)GlcNAc
# How it was run: as §1
# GlcNAc(b1-6)GalNAc = molecular target: GlcNAc(b1-6)GalNAc
# How it was run: as §1
# [31] = molecular target: GlcNAc6S(b1-3)Gal(b1-4)GlcNAc
# How it was run: as §1
# Kdn(a2-3)Gal(b1-3)GalNAc = molecular target: Kdn(a2-3)Gal(b1-3)GalNAc
# How it was run: as §1
# Kdn(a2-3)Gal(b1-3)GlcNAc = molecular target: Kdn(a2-3)Gal(b1-3)GlcNAc
# How it was run: as §1
# Kdn(a2-3)Gal(b1-4)Glc = molecular target: Kdn(a2-3)Gal(b1-4)Glc
# How it was run: as §1
# Kdn(a2-3)Gal(b1-4)GlcNAc = molecular target: Kdn(a2-3)Gal(b1-4)GlcNAc
# How it was run: as §1
# [32] = molecular target: Kdn(a2-3)Gal(b1-4)[Fuc(a1-3)]GlcNAc
# How it was run: as §1
# Kdn(a2-6)Gal(b1-4)GlcNAc = molecular target: Kdn(a2-6)Gal(b1-4)GlcNAc
# How it was run: as §1
# [33] = molecular target: Man(a1-2)Man(a1-2)Man(a1-3)Man
# How it was run: as §1
# [34] = molecular target: Man(a1-2)Man(a1-2)Man(a1-6)[Man(a1-3)]Man
# How it was run: as §1
# Man(a1-2)Man(a1-3)Man = molecular target: Man(a1-2)Man(a1-3)Man
# How it was run: as §1
binder,measurement,setting,value
B1,glycan array binding signal (z-score),[1],-0.075
same,glycan array binding signal (z-score),GlcNAc(b1-3)Gal(b1-4)Glc,-0.076
same,glycan array binding signal (z-score),[2],-0.085
same,glycan array binding signal (z-score),[3],-0.079
same,glycan array binding signal (z-score),[4],-0.074
same,glycan array binding signal (z-score),[5],-0.058
same,glycan array binding signal (z-score),[6],-0.078
same,glycan array binding signal (z-score),[7],-0.043
same,glycan array binding signal (z-score),[8],-0.072
same,glycan array binding signal (z-score),[9],-0.064
same,glycan array binding signal (z-score),[10],-0.076
same,glycan array binding signal (z-score),[11],-0.059
same,glycan array binding signal (z-score),[12],-0.065
same,glycan array binding signal (z-score),[13],-0.076
same,glycan array binding signal (z-score),[14],-0.07
same,glycan array binding signal (z-score),[15],-0.068
same,glycan array binding signal (z-score),[16],-0.084
same,glycan array binding signal (z-score),[17],-0.089
same,glycan array binding signal (z-score),[18],-0.073
same,glycan array binding signal (z-score),[19],-0.075
same,glycan array binding signal (z-score),[20],-0.085
same,glycan array binding signal (z-score),[21],-0.087
same,glycan array binding signal (z-score),GlcNAc(b1-3)GalNAc,-0.081
same,glycan array binding signal (z-score),GlcNAc(b1-3)Man,-0.084
same,glycan array binding signal (z-score),[22],-0.084
same,glycan array binding signal (z-score),[23],-0.08
same,glycan array binding signal (z-score),[24],-0.077
same,glycan array binding signal (z-score),[25],-0.088
same,glycan array binding signal (z-score),GlcNAc(b1-4)GlcNAc,-0.088
same,glycan array binding signal (z-score),[26],-0.08
same,glycan array binding signal (z-score),[27],-0.086
same,glycan array binding signal (z-score),[28],-0.077
same,glycan array binding signal (z-score),[29],-0.076
same,glycan array binding signal (z-score),[30],-0.084
same,glycan array binding signal (z-score),GlcNAc(b1-6)GalNAc,-0.082
same,glycan array binding signal (z-score),[31],-0.08
same,glycan array binding signal (z-score),Kdn(a2-3)Gal(b1-3)GalNAc,-0.076
same,glycan array binding signal (z-score),Kdn(a2-3)Gal(b1-3)GlcNAc,-0.08
same,glycan array binding signal (z-score),Kdn(a2-3)Gal(b1-4)Glc,-0.079
same,glycan array binding signal (z-score),Kdn(a2-3)Gal(b1-4)GlcNAc,-0.08
same,glycan array binding signal (z-score),[32],-0.073
same,glycan array binding signal (z-score),Kdn(a2-6)Gal(b1-4)GlcNAc,-0.082
same,glycan array binding signal (z-score),[33],-0.071
same,glycan array binding signal (z-score),[34],-0.059
same,glycan array binding signal (z-score),Man(a1-2)Man(a1-3)Man,-0.083
